The values below come from the supplement of paper PMC12217912.

The list shows a part of the results. Sequences were assembled here from the parent chain. Inactive controls read about 0.05.

The labels stand for the following.
B1: TEV protease; numbered along this chain (parent)
chain: MGESLFKGPRDYNPISSSICHLTNESDGHTTSLYGIGFGPFIITNKHLFRRNNGTLVVQSLHGVFKVKDTTTLQQHLVDGRDMIIIRMPKDFPPFPQKLKFREPQREERICLVTTNFQTKSMSSMVSDTSCTFPSGDGIFWKHWIQTKDGQCGSPLVSTRDGFIVGIHSASNFTNTNNYFTSVPKNFMELLTNQEAQQWVSGWRLNADSVLWGGHKVFMVKPEEPFQPVKEATQL

The experiment covers variants of B1. As to the kind of experiment: raw area under fraction-flipped curve 0-4 h after induction (AUC4h, not background-subtracted), DNA-recorder readout of cleavage of the substrate (dimensionless); higher = more cleavage of the substrate by the protease variant. To be noted: temperature: 34 °C; time window: 0-4 h after rhamnose induction.
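Further: Bxb1 expression induced with 0.2% (w/v) L-rhamnose at OD600 near 0.5, cultures sampled hourly, flipped fraction per protease–substrate barcode pair counted by paired-end Illumina sequencing.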

MGESLFKGPRDYNPISSSICHLTNESDGHTTSLYGIGFGPFIITNKHLFRRNNGTLVVQSLHGVFKVKDTTTLQQHLVDGRDMIIIRMLKDFPPFPQKLKFREPQREERICLVTTNFQTKSMSSMVSDTSCTFPSGDGIFWKHWIQTKDGQCGSPLVSTRDGFIVGIHSASNFTNTNNYFTSVPKNFMELLTNQEAQQWVSGWRLNADSVLWGGHKVFMVKPEEPFQPVKEATQL [P89L]: the “area with substrate ENLYFCS” value was found to be 0.0279, the “area with substrate ENLYFHS” value was 0.0508, the “area with substrate ENLYFIS” value is 0.0769 and the “area with substrate ENLYFKS” value was determined as 0.0537. Also, the “area with substrate ENLYFMS” value was 0.0331, the “area with substrate ENLYFPS” value is 0.0487, the “area with substrate ENLYFSS” value stood at 0.0853 and the “area with substrate ENLYFWS” value came to 0.057.
MGESLFKGPRDYNPISSSICHLTNESDGHTTSLYGIGFGPFIINNKHLFRRNNGTLVVQSLHGVFKVKDTTTLQQHLVDGRDMIIIRMPKDFPPFPQKLKFREPQREERICLVTTNFQTKSMSSMVSDTSCTFPSGDGIFWKHWIQTKDGQCGSPLVSTRDGFIVGIHSASNFTNTNNYFTSVPKNFMELLTNQEAQQWVSGWRLNADSVLWGGHKVFMVKPEEPFQPVKEATQL [T44N]: the “area with substrate ENLYFCS” value came out at 0.0305, the “area with substrate ENLYFDS” value was found to be 0.0323, the “area with substrate ENLYFES” value came to 0.0341 and the “area with substrate ENLYFFS” value worked out at 0.0622. In addition, the “area with substrate ENLYFGS” value was determined as 0.0421, the “area with substrate ENLYFHS” value came to 0.0433, the “area with substrate ENLYFIS” value stood at 0.0369 and the “area with substrate ENLYFKS” value came out at 0.0381. Further, the “area with substrate ENLYFLS” value was 0.0555, the “area with substrate ENLYFMS” value was determined as 0.0454, the “area with substrate ENLYFNS” value was found to be 0.0211 and the “area with substrate ENLYFPS” value worked out at 0.0504. Also, the “area with substrate ENLYFRS” value was found to be 0.0286, the “area with substrate ENLYFSS” value worked out at 0.0481, the “area with substrate ENLYFTS” value was determined as 0.0477 and the “area with substrate ENLYFVS” value stood at 0.0425. Also, the “area with substrate ENLYFWS” value was found to be 0.0195 and the “area with substrate ENLYFYS” value was 0.0347.
MGESLFKGPRDYNPISSSICHLTNESDGHTTSLYGIGFGPFIITNKHLFRRNNGTLVVQSLHGVFKVKDRTTLQQHLVDGRDMIIIRMPKDFPPFPQKLKFREPQREERICLVTTNFQTKSMSSMVSDTSCTFPSGDGIFWKHWIQTKDGQCGSPLVSTRDGFIVGIHSASNFTNTNNYFTSVPKNFMELLTNQEAQQWVSGWRLNADSVLWGGHKVFMVKPEEPFQPVKEATQL [T70R]: the “area with substrate ENLYFCS” value amounted to 0.0517, the “area with substrate ENLYFDS” value is 0.0522, the “area with substrate ENLYFES” value was 0.0654 and the “area with substrate ENLYFFS” value stood at 0.065. Moreover, the “area with substrate ENLYFIS” value worked out at 0.0483, the “area with substrate ENLYFKS” value came out at 0.061, the “area with substrate ENLYFMS” value stood at 0.0626 and the “area with substrate ENLYFNS” value is 0.0558. Further, the “area with substrate ENLYFPS” value amounted to 0.0541, the “area with substrate ENLYFRS” value came out at 0.0632 and the “area with substrate ENLYFVS” value was 0.0456.
As for MGESLFKGPRDYNPISSSICHLTNESDGHTTSLYGIGFGPFIITNKHLFRRNNKTLVVQSLHGVFKVKDTTTLQQHLVDGRDMIIIRMPKDFPPFPQKLKFREPQREERICLVTTNFQTKSMSSMVSDTSCTFPSGDGIFWKHWIQTKDGQCGSPLVSTRDGFIVGIHSASNFTNTNNYFTSVPKNFMELLTNQEAQQWVSGWRLNADSVLWGGHKVFMVKPEEPFQPVKEATQL [G54K], the “area with substrate ENLYFCS” value was 0.0632, the “area with substrate ENLYFDS” value was determined as 0.0559, the “area with substrate ENLYFES” value was 0.0625 and the “area with substrate ENLYFFS” value was 0.067. Moreover, the “area with substrate ENLYFKS” value amounted to 0.0708, the “area with substrate ENLYFMS” value was 0.0477, the “area with substrate ENLYFPS” value was 0.0675 and the “area with substrate ENLYFRS” value was determined as 0.049. For the same variant, the “area with substrate ENLYFSS” value was found to be 0.0525, the “area with substrate ENLYFTS” value was found to be 0.0596, the “area with substrate ENLYFWS” value was found to be 0.047 and the “area with substrate ENLYFYS” value stood at 0.0526.
Turning to MGESLFKGPRDYNPISSSICHLTNESDGHTTSLYGIGFGPFIITNKHLFRRNNGTLVVGSLHGVFKVKDTTTLQQHLVDGRDMIIIRMPKDFPPFPQKLKFREPQREERICLVTTNFQTKSMSSMVSDTSCTFPSGDGIFWKHWIQTKDGQCGSPLVSTRDGFIVGIHSASNFTNTNNYFTSVPKNFMELLTNQEAQQWVSGWRLNADSVLWGGHKVFMVKPEEPFQPVKEATQL [Q59G], the “area with substrate ENLYFCS” value stood at 0.0519, the “area with substrate ENLYFDS” value worked out at 0.0487, the “area with substrate ENLYFES” value came out at 0.0611 and the “area with substrate ENLYFFS” value stood at 0.0551. Further, the “area with substrate ENLYFHS” value came to 0.0521, the “area with substrate ENLYFIS” value came to 0.0636, the “area with substrate ENLYFKS” value worked out at 0.0619 and the “area with substrate ENLYFPS” value was determined as 0.0461. Besides, the “area with substrate ENLYFRS” value came to 0.0461, the “area with substrate ENLYFTS” value turned out to be 0.0522 and the “area with substrate ENLYFVS” value was 0.0354.
As to MGESLFKGPRDYNPISSSICHLTNESDGHTTSLYGIGFGPFIITNKHLFRRNNGTLVRQSLHGVFKVKDTTTLQQHLVDGRDMIIIRMPKDFPPFPQKLKFREPQREERICLVTTNFQTKSMSSMVSDTSCTFPSGDGIFWKHWIQTKDGQCGSPLVSTRDGFIVGIHSASNFTNTNNYFTSVPKNFMELLTNQEAQQWVSGWRLNADSVLWGGHKVFMVKPEEPFQPVKEATQL [V58R], the “area with substrate ENLYFCS” value worked out at 0.0414, the “area with substrate ENLYFES” value is 0.0498, the “area with substrate ENLYFFS” value is 0.0488 and the “area with substrate ENLYFGS” value came to 0.0454. The “area with substrate ENLYFHS” value stood at 0.0469, the “area with substrate ENLYFIS” value was found to be 0.0448, the “area with substrate ENLYFKS” value was 0.0389 and the “area with substrate ENLYFMS” value was determined as 0.0382. Moreover, the “area with substrate ENLYFNS” value is 0.0556, the “area with substrate ENLYFPS” value was found to be 0.0494, the “area with substrate ENLYFRS” value came out at 0.0592 and the “area with substrate ENLYFSS” value came out at 0.0418. Besides, the “area with substrate ENLYFTS” value worked out at 0.0416 and the “area with substrate ENLYFVS” value is 0.0452.
In the case of MGESLFKGPRDYNPISSSICHLTNESDGHTTSLYGIGFGPFIITNKHLFRRNNGTLVVQSLHGVFKVKDTTTLQQHLVDGRDMITIRMPKDFPPFPQKLKFREPQREERICLVTTNFQTKSMSSMVSDTSCTFPSGDGIFWKHWIQTKDGQCGSPLVSTRDGFIVGIHSASNFTNTNNYFTSVPKNFMELLTNQEAQQWVSGWRLNADSVLWGGHKVFMVKPEEPFQPVKEATQL [I85T], the “area with substrate ENLYFCS” value was determined as 0.0774, the “area with substrate ENLYFFS” value is 0.0589, the “area with substrate ENLYFIS” value was found to be 0.043 and the “area with substrate ENLYFLS” value is 0.0617. For the same variant, the “area with substrate ENLYFMS” value is 0.0318, the “area with substrate ENLYFNS” value is 0.057, the “area with substrate ENLYFPS” value turned out to be 0.0513 and the “area with substrate ENLYFRS” value was found to be 0.0531. Moreover, the “area with substrate ENLYFSS” value was 0.0465, the “area with substrate ENLYFTS” value came out at 0.0458 and the “area with substrate ENLYFWS” value was 0.054.
Take MGESLFKGPRDYNPISSSICHLTNESDGHTTSLYGIGFGPFIITNKHLFRRNNGTLVVQSLHGVFKVKDTTTLQQWLVDGRDMIIIRMPKDFPPFPQKLKFREPQREERICLVTTNFQTKSMSSMVSDTSCTFPSGDGIFWKHWIQTKDGQCGSPLVSTRDGFIVGIHSASNFTNTNNYFTSVPKNFMELLTNQEAQQWVSGWRLNADSVLWGGHKVFMVKPEEPFQPVKEATQL [H76W]: the “area with substrate ENLYFCS” value amounted to 0.0535, the “area with substrate ENLYFES” value was found to be 0.0474, the “area with substrate ENLYFFS” value is 0.0218 and the “area with substrate ENLYFGS” value was 0.0817. The “area with substrate ENLYFHS” value was determined as 0.0519, the “area with substrate ENLYFIS” value is 0.0552, the “area with substrate ENLYFMS” value is 0.063 and the “area with substrate ENLYFNS” value was determined as 0.068. The “area with substrate ENLYFPS” value is 0.0683, the “area with substrate ENLYFRS” value stood at 0.0594, the “area with substrate ENLYFTS” value came out at 0.0618 and the “area with substrate ENLYFWS” value turned out to be 0.0577. The “area with substrate ENLYFYS” value is 0.0488.
For MGESLFKGPRDYNPISSSICHLTNESDGHTTSLYGIGFGPFIITNKHLFRRNDGTLVVQSLHGVFKVKDTTTLQQHLVDGRDMIIIRMPKDFPPFPQKLKFREPQREERICLVTTNFQTKSMSSMVSDTSCTFPSGDGIFWKHWIQTKDGQCGSPLVSTRDGFIVGIHSASNFTNTNNYFTSVPKNFMELLTNQEAQQWVSGWRLNADSVLWGGHKVFMVKPEEPFQPVKEATQL [N53D], the “area with substrate ENLYFCS” value turned out to be 0.0554, the “area with substrate ENLYFDS” value was 0.056, the “area with substrate ENLYFES” value stood at 0.0704 and the “area with substrate ENLYFFS” value is 0.0784. Besides, the “area with substrate ENLYFGS” value came out at 0.0561, the “area with substrate ENLYFIS” value was 0.0568, the “area with substrate ENLYFKS” value was determined as 0.0684 and the “area with substrate ENLYFMS” value came out at 0.0747. Further, the “area with substrate ENLYFNS” value was 0.0654, the “area with substrate ENLYFPS” value came to 0.0381, the “area with substrate ENLYFRS” value came to 0.0563 and the “area with substrate ENLYFSS” value turned out to be 0.0686. In addition, the “area with substrate ENLYFTS” value was 0.0534, the “area with substrate ENLYFWS” value is 0.0589 and the “area with substrate ENLYFYS” value is 0.0392.
